Some of the results follow.

This assay has as its target T1, MBP-FoxP1dN (Mus musculus, UniProt P58462 326-579).
T1 sequence: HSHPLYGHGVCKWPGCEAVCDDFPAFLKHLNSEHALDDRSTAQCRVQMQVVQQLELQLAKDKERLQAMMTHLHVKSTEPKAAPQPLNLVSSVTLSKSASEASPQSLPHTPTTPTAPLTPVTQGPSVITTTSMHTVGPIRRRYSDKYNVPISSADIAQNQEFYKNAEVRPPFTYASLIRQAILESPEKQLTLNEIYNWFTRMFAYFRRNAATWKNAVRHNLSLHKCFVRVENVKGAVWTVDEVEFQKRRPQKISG
The experiment in a line: PD-seq (MBP pull-down with sequencing); 20 mM Tris-HCl pH 7.5, 100 mM NaCl, 1.5 mM MgCl2, 0.4 uM protein, 0.1 uM dsDNA library, 30 min, room temperature, amylose pull-down; high values mean tight binding. Particulars: protein: recombinant; tags: His6-MBP; chain copies: 2; dsDNA, one strand shown. In outline: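 Binding is reads-per-million enrichment of pull-down over input, with replicates pooled. It comes from 30 min room-temperature incubation in Tris pH 7.5 buffer with NaCl and MgCl2 of 0.4 µM His6-MBP-tagged, N-terminally truncated mouse FoxP3 or FoxP1 fragment from E. coli with 0.1 µM Klenow-filled degenerate double-stranded DNA library, followed by amylose resin capture, three washes and Illumina sequencing of the released DNA.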
As to “GATGATTGTTCTCCCAGCTGATGAATTTCAACATTCGAGTAAACAAATTTTCCTAATCTTTCTGTTCAAGCGCCATCTAC”, the binding signal was 0.964 RPM ratio (pull-down/input).
As to “GATGATTGTTCTCCCAGCTGATGAATTACCTCAATCGAGTAAACAAATTTTCCTAATCTTTCTGTTCAAGCGCCATCTAC”, the binding signal is 1.1 RPM ratio (pull-down/input).
Consider “GATGATTGTTCTCCCAGCTGATGAATTCGAAGTGTCGAGTAAACAAATTTTCCTAATCTTTCTGTTCAAGCGCCATCTAC”, for which the binding signal was 0.856 RPM ratio (pull-down/input).
As for “GATGATTGTTCTCCCAGCTGATGAATTTAGCCTGTCGAGTAAACAAATTTTCCTAATCTTTCTGTTCAAGCGCCATCTAC”, the binding signal is 0.841 RPM ratio (pull-down/input).
Consider “GATGATTGTTCTCCCAGCTGATGAATTCGAGCTGTCGAGTAAACAAATTTTCCTAATCTTTCTGTTCAAGCGCCATCTAC”, for which the binding signal was 0.846 RPM ratio (pull-down/input).
For the sequence “GATGATTGTTCTCCCAGCTGATGAATTGTGCCGTTCGAGTAAACAAATTTTCCTAATCTTTCTGTTCAAGCGCCATCTAC”, the binding signal is 0.972 RPM ratio (pull-down/input).
As to “GATGATTGTTCTCCCAGCTGATGAATTGAGGAAGTCGAGTAAACAAATTTTCCTAATCTTTCTGTTCAAGCGCCATCTAC”, the binding signal is 0.788 RPM ratio (pull-down/input).
Consider “GATGATTGTTCTCCCAGCTGATGAATTGTGAAGATCGAGTAAACAAATTTTCCTAATCTTTCTGTTCAAGCGCCATCTAC”, for which the binding signal was 1.02 RPM ratio (pull-down/input).
On to “GATGATTGTTCTCCCAGCTGATGAATTTGCACTTTCGAGTAAACAAATTTTCCTAATCTTTCTGTTCAAGCGCCATCTAC”, for which the binding signal was 1.12 RPM ratio (pull-down/input).
“GATGATTGTTCTCCCAGCTGATGAATTGGAACGCTCGAGTAAACAAATTTTCCTAATCTTTCTGTTCAAGCGCCATCTAC”: the binding signal was 0.813 RPM ratio (pull-down/input).
The same measure for “GATGATTGTTCTCCCAGCTGATGAATTATCGATTTCGAGTAAACAAATTTTCCTAATCTTTCTGTTCAAGCGCCATCTAC”: 1.02 RPM ratio (pull-down/input); for “GATGATTGTTCTCCCAGCTGATGAATTGCGTGACTCGAGTAAACAAATTTTCCTAATCTTTCTGTTCAAGCGCCATCTAC”: 1.06 RPM ratio (pull-down/input).
Turning to “GATGATTGTTCTCCCAGCTGATGAATTCCCTACTTCGAGTAAACAAATTTTCCTAATCTTTCTGTTCAAGCGCCATCTAC”, the binding signal is 0.87 RPM ratio (pull-down/input).
The same measure for “GATGATTGTTCTCCCAGCTGATGAATTCTCGGATTCGAGTAAACAAATTTTCCTAATCTTTCTGTTCAAGCGCCATCTAC”: 0.902 RPM ratio (pull-down/input); for “GATGATTGTTCTCCCAGCTGATGAATTATTAGGTTCGAGTAAACAAATTTTCCTAATCTTTCTGTTCAAGCGCCATCTAC”: 0.984 RPM ratio (pull-down/input); for “GATGATTGTTCTCCCAGCTGATGAATTGTAACGCTCGAGTAAACAAATTTTCCTAATCTTTCTGTTCAAGCGCCATCTAC”: 0.986 RPM ratio (pull-down/input).
The same measure for “GATGATTGTTCTCCCAGCTGATGAATTTTCGGTGTCGAGTAAACAAATTTTCCTAATCTTTCTGTTCAAGCGCCATCTAC”: 0.894 RPM ratio (pull-down/input).
Regarding “GATGATTGTTCTCCCAGCTGATGAATTTCGGAAATCGAGTAAACAAATTTTCCTAATCTTTCTGTTCAAGCGCCATCTAC”, the binding signal was 1.02 RPM ratio (pull-down/input).
Regarding “GATGATTGTTCTCCCAGCTGATGAATTTTTGGATTCGAGTAAACAAATTTTCCTAATCTTTCTGTTCAAGCGCCATCTAC”, the binding signal was 0.948 RPM ratio (pull-down/input).
On to “GATGATTGTTCTCCCAGCTGATGAATTTCACGTTTCGAGTAAACAAATTTTCCTAATCTTTCTGTTCAAGCGCCATCTAC”, for which the binding signal was 0.862 RPM ratio (pull-down/input).
Take “GATGATTGTTCTCCCAGCTGATGAATTGGCGGTATCGAGTAAACAAATTTTCCTAATCTTTCTGTTCAAGCGCCATCTAC”: the binding signal was 0.894 RPM ratio (pull-down/input).
The same measure for “GATGATTGTTCTCCCAGCTGATGAATTCCATCGCTCGAGTAAACAAATTTTCCTAATCTTTCTGTTCAAGCGCCATCTAC”: 0.823 RPM ratio (pull-down/input); for “GATGATTGTTCTCCCAGCTGATGAATTACCGTATTCGAGTAAACAAATTTTCCTAATCTTTCTGTTCAAGCGCCATCTAC”: 1.11 RPM ratio (pull-down/input).
In the case of “GATGATTGTTCTCCCAGCTGATGAATTACCAAAATCGAGTAAACAAATTTTCCTAATCTTTCTGTTCAAGCGCCATCTAC”, the binding signal was 1.3 RPM ratio (pull-down/input).
Take “GATGATTGTTCTCCCAGCTGATGAATTTTTTAGTTCGAGTAAACAAATTTTCCTAATCTTTCTGTTCAAGCGCCATCTAC”: the binding signal was 1.1 RPM ratio (pull-down/input).
As to “GATGATTGTTCTCCCAGCTGATGAATTAGCGTCATCGAGTAAACAAATTTTCCTAATCTTTCTGTTCAAGCGCCATCTAC”, the binding signal is 1.17 RPM ratio (pull-down/input).
With “GATGATTGTTCTCCCAGCTGATGAATTTGAGGATTCGAGTAAACAAATTTTCCTAATCTTTCTGTTCAAGCGCCATCTAC”, the binding signal is 0.846 RPM ratio (pull-down/input).
With “GATGATTGTTCTCCCAGCTGATGAATTTAGCGTCTCGAGTAAACAAATTTTCCTAATCTTTCTGTTCAAGCGCCATCTAC”, the binding signal is 0.926 RPM ratio (pull-down/input).
“GATGATTGTTCTCCCAGCTGATGAATTGCTCCCATCGAGTAAACAAATTTTCCTAATCTTTCTGTTCAAGCGCCATCTAC”: the binding signal is 1.05 RPM ratio (pull-down/input).
For “GATGATTGTTCTCCCAGCTGATGAATTAATTCCATCGAGTAAACAAATTTTCCTAATCTTTCTGTTCAAGCGCCATCTAC”, the binding signal was 0.978 RPM ratio (pull-down/input).
On to “GATGATTGTTCTCCCAGCTGATGAATTAGGTTCCTCGAGTAAACAAATTTTCCTAATCTTTCTGTTCAAGCGCCATCTAC”, for which the binding signal was 0.845 RPM ratio (pull-down/input).

The values are drawn from paper PMC12820563, “FoxP3 forms a head-to-head dimer in vivo and stabilizes its multimerization on adjacent microsatellites”.
